# Measurements reported in the supplement of paper PMC11417369.
# ± gives the standard deviation of the averaged measurements. Some of the results follow.
# Tested on: PfAP2-LT AP2 domain (GST-tagged)
# Assay: gcPBM binding intensity (ln(normalized median fluorescence intensity)); higher = stronger DNA binding
# Outline: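 In this array assay, P. falciparum DNA-binding domains with a GST tag, expressed in E. coli, were applied for 1 h to primer-extended double-stranded 36-bp intergenic genomic probes and negative controls on an Agilent 4 × 180k array. Bound protein was visualised with Alexa488 anti-GST antibody at 488 nm. Binding intensity is the highest Masliner-normalised natural-log median intensity across replicate spots of either probe orientation.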
row,Sequence,gcPBM binding intensity (ln)
1,AAAAATAAAAAAAACACACATACCTTATTTTTGTTC [CACACA_site2634],8.98 ± 0.42
2,AATTAAAATTTTTTTTTTTTTTTTTTTTTTCTATTA [CACACA_negctrl_site1585],8.15 ± 0.56
3,ATTTAAAAAACTTTTAGCAAAAAAAAAAAATAATAA [TGCATGCA_negctrl_site191],8.21 ± 0.5
4,TATATATCCTTCTATGCATGCATATGGATAGATTTC [TGCATGCA_site58],8.87 ± 0.34
5,TATATATAGAAACACACACACAAAAAAAAAAAAAAA [CACACA_site1506],9.15 ± 0.46
6,AAATTGATATTATATATATATATATATATATATATA [GTGCAC_negctrl_site482],9.45 ± 0.32
7,ATAATATATATATGTAGTACGTATATAATTTTAATA [XGTACX_site5228],9.01 ± 0.48
8,TGAATTTCAAAACAGTGTACATTAATATATATATAA [XGTACX_site7951],8.61 ± 0.46
9,ATATTTATGACCGTACGTACCTAACAATACAATCAA [XGTACX_site4511],8.79 ± 0.38
10,TTACAAATATTATAAAGTACAAACCAGTAGATTTTG [XGTACX_site2272],8.63 ± 0.4
11,TATTTTTTTTTTTTTTTTTTTACCTTTCCACTCAAA [CACACA_negctrl_site1454],8.38 ± 0.53
12,TCATTCTAAATATAAACACACATAAATATGTACATT [CACACA_site7555],8.84 ± 0.35
13,TTTTTTTTTTTTAAAAGTACATAGTAGTAATTATAG [XGTACX_site4232],8.14 ± 0.46
14,CATAAAAATGGATACACACACATAATATATATATAT [CACACA_site3619],9.52 ± 0.39
15,AAAAAAATTAATGTGTGTACTTAGATATAATGTTTA [XGTACX_site8862],8.85 ± 0.49
16,TAATTTTTTTTTTATTGTACTTAATATTTTTAATTT [XGTACX_site5929],8.44 ± 0.65
17,ATTATCAAGACATTGCGTACTTAAAAAAAAAAAAAT [XGTACX_site6347],8.64 ± 0.47
18,TTATTATTCATATATTCACACATTAAAATTTTTCAA [CACACA_site4243],8.51 ± 0.52
19,CATATATAATAATATTGTACATATATAATAATAATA [XGTACX_site3338],8.72 ± 0.53
20,GTGAAGGTTTATATGTGTACATATATGTATTATATA [XGTACX_site326],8.96 ± 0.41
21,ATTTCATACAGACACACACACAAACAAACATATATA [CACACA_site979],9.8 ± 0.28
22,ATTATATATACATATACACACATACGTACATACATA [CACACA_site9194],9.24 ± 0.28
23,TTTTTTTTTTTTAATGCACACAGTGAACTTTTACTT [CACACA_site3567],8.94 ± 0.57
24,TTTAATAAATTGTGTACACAAAACATATAAATTTCG [CACACA_site5644],8.72 ± 0.54
